{"source": "the supplement of paper PMC3724861", "note": "Some of the results follow.", "data": [{"system": "T1, Caupolican (Caup) homeodomain DNA-binding domain", "T1 sequence": "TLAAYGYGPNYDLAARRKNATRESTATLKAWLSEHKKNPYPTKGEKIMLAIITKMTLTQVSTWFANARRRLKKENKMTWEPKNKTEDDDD", "assay": "PBM E-score (8-mer, recovered from the published 9-mer minima) (E-score (dimensionless, -0.5 to 0.5)); Drosophila protein; higher = stronger relative binding preference, active = 0.31 or more", "procedure,_shortened": "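An enrichment score, with higher meaning stronger, expresses relative binding preference for each short DNA word. The protein used was Caup's homeodomain DNA-binding domain (residues 214-303), produced by in vitro transcription and translation and tested at 100 nM on custom-designed protein binding microarrays. The 8-mer values were recovered from published 9-mer scores, each equal to the lower of its two constituent 8-mer scores.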", "values": [{"sequence": "GAACGGCA", "PBM E-score": "inactive: -0.0341"}, {"sequence": "CAGCACGA", "PBM E-score": "inactive: 0.0476"}, {"sequence": "GTTAAATA", "PBM E-score": "inactive: 0.232"}, {"sequence": "ACCATCAT", "PBM E-score": "inactive: 0.0686"}, {"sequence": "AAGCTGTG", "PBM E-score": "inactive: 0.00524"}, {"sequence": "ATGAGCTA", "PBM E-score": "inactive: 0.00817"}, {"sequence": "GGGATTTA", "PBM E-score": "inactive: -0.0562"}, {"sequence": "CTAACCCA", "PBM E-score": "inactive: -0.0966"}, {"sequence": "TGTTGAAA", "PBM E-score": "inactive: 0.189"}, {"sequence": "CTTTAGGA", "PBM E-score": "inactive: -0.0248"}, {"sequence": "CGGCCCCC", "PBM E-score": "inactive: -0.29"}, {"sequence": "ATGTAGTA", "PBM E-score": "active: 0.372"}, {"sequence": "ATCAGCTC", "PBM E-score": "inactive: 0.00528"}, {"sequence": "GCACTGAA", "PBM E-score": "inactive: 0.021"}, {"sequence": "TAAGTCTA", "PBM E-score": "inactive: 0.0325"}, {"sequence": "ACGGGATC", "PBM E-score": "inactive: -0.00327"}, {"sequence": "TCCACCCA", "PBM E-score": "inactive: -0.071"}, {"sequence": "GAGAGTCA", "PBM E-score": "inactive: -0.0427"}, {"sequence": "TGTGAGAA", "PBM E-score": "inactive: 0.0904"}, {"sequence": "AGTCCCAA", "PBM E-score": "inactive: -0.095"}, {"sequence": "CGGAGTTC", "PBM E-score": "inactive: -0.0275"}, {"sequence": "AATTGTGA", "PBM E-score": "inactive: 0.148"}, {"sequence": "CGAGGTTC", "PBM E-score": "inactive: -0.0575"}, {"sequence": "AGGTTACC", "PBM E-score": "inactive: -0.0352"}, {"sequence": "ATGAAACC", "PBM E-score": "inactive: 0.108"}, {"sequence": "AACCTTTG", "PBM E-score": "inactive: 0.0184"}, {"sequence": "AAGCGTCA", "PBM E-score": "≥ 0.00475"}, {"sequence": "GGTTAACC", "PBM E-score": "inactive: -0.115"}, {"sequence": "GGCCGCCC", "PBM E-score": "inactive: -0.285"}, {"sequence": "CGATTCCA", "PBM E-score": "inactive: -0.0588"}, {"sequence": "AACATTCC", "PBM E-score": "inactive: 0.148"}, {"sequence": "ATTCGGCA", "PBM E-score": "inactive: 0.0146"}, {"sequence": "CATCAAGC", "PBM E-score": "inactive: -0.0243"}, {"sequence": "AGTCCAGC", "PBM E-score": "inactive: -0.162"}, {"sequence": "AATCCTAC", "PBM E-score": "inactive: 0.035"}, {"sequence": "ATTGGGTC", "PBM E-score": "inactive: -0.117"}, {"sequence": "GTTGAGTA", "PBM E-score": "inactive: 0.128"}, {"sequence": "ACCGCTCG", "PBM E-score": "inactive: -0.0508"}, {"sequence": "CTAGCTAA", "PBM E-score": "inactive: -0.0321"}, {"sequence": "AGCGCGAC", "PBM E-score": "inactive: -0.0305"}, {"sequence": "CCCAGAAC", "PBM E-score": "inactive: -0.0251"}, {"sequence": "ATTTCTAA", "PBM E-score": "inactive: -0.0178"}, {"sequence": "AGTCTTAA", "PBM E-score": "inactive: 0.0528"}, {"sequence": "CCATAACA", "PBM E-score": "inactive: 0.16"}, {"sequence": "CCGCGAGA", "PBM E-score": "inactive: -0.141"}, {"sequence": "CGAGTCAC", "PBM E-score": "inactive: -0.0968"}, {"sequence": "GCGGGTTA", "PBM E-score": "inactive: -0.0797"}, {"sequence": "TCGTATCA", "PBM E-score": "inactive: 0.142"}, {"sequence": "GAGCGCAA", "PBM E-score": "inactive: -0.179"}, {"sequence": "GAAGGATA", "PBM E-score": "inactive: 0.0415"}, {"sequence": "AGCAGAAG", "PBM E-score": "inactive: -0.0802"}, {"sequence": "ACAGGCGC", "PBM E-score": "inactive: -0.0681"}, {"sequence": "GACGTAAC", "PBM E-score": "inactive: 0.1"}, {"sequence": "AGATTGAC", "PBM E-score": "inactive: 0.0835"}, {"sequence": "GTGTAGGA", "PBM E-score": "≥ 0.18"}, {"sequence": "CGTTTGAC", "PBM E-score": "inactive: -0.0145"}, {"sequence": "AAATTATC", "PBM E-score": "inactive: 0.17"}, {"sequence": "AGAGGTAT", "PBM E-score": "inactive: 0.109"}, {"sequence": "ACGGTTAA", "PBM E-score": "inactive: 0.0213"}, {"sequence": "ATGATCGG", "PBM E-score": "inactive: 0.0469"}, {"sequence": "GTGTATGA", "PBM E-score": "inactive: 0.249"}, {"sequence": "ATTTATGA", "PBM E-score": "inactive: 0.116"}, {"sequence": "ATCCTTTA", "PBM E-score": "inactive: -0.00489"}, {"sequence": "AATCTGCA", "PBM E-score": "inactive: 0.0568"}, {"sequence": "CACAAGTG", "PBM E-score": "inactive: 0.111"}, {"sequence": "CACGCGAA", "PBM E-score": "inactive: 0.0497"}, {"sequence": "TAGGCTAA", "PBM E-score": "inactive: -0.0807"}, {"sequence": "GTAGTGAA", "PBM E-score": "inactive: 0.0491"}, {"sequence": "CCAGCACA", "PBM E-score": "inactive: 0.00587"}, {"sequence": "CGCTCCGC", "PBM E-score": "inactive: -0.304"}, {"sequence": "AACCAAAA", "PBM E-score": "inactive: 0.0181"}, {"sequence": "CAGTTCAA", "PBM E-score": "inactive: -0.0476"}, {"sequence": "ACCCAGGA", "PBM E-score": "inactive: -0.0367"}, {"sequence": "ATTTCTAG", "PBM E-score": "inactive: -0.0585"}, {"sequence": "CCCACATA", "PBM E-score": "inactive: -0.00819"}, {"sequence": "TCTTTGAA", "PBM E-score": "inactive: -0.0406"}, {"sequence": "CACTATCA", "PBM E-score": "inactive: 0.0598"}, {"sequence": "GAACAAAA", "PBM E-score": "inactive: 0.152"}, {"sequence": "ACGTGGAT", "PBM E-score": "inactive: 0.00531"}, {"sequence": "ACCCCAAC", "PBM E-score": "inactive: -0.0209"}, {"sequence": "ACGCAGTG", "PBM E-score": "inactive: -0.145"}, {"sequence": "ACCTAGGC", "PBM E-score": "inactive: -0.163"}, {"sequence": "CATCAGTC", "PBM E-score": "inactive: 0.00717"}, {"sequence": "CCGAATAG", "PBM E-score": "inactive: -0.0479"}, {"sequence": "CCCCCTCA", "PBM E-score": "inactive: -0.278"}, {"sequence": "CATAGGGA", "PBM E-score": "inactive: -0.0374"}, {"sequence": "CTCTAAGC", "PBM E-score": "inactive: -0.0374"}, {"sequence": "GCTGTGTA", "PBM E-score": "inactive: 0.168"}, {"sequence": "ACAAAGAC", "PBM E-score": "inactive: 0.1"}, {"sequence": "ATACAAAA", "PBM E-score": "≥ 0.284"}, {"sequence": "ACACTTTC", "PBM E-score": "inactive: 0.115"}, {"sequence": "GCACGTAC", "PBM E-score": "inactive: -0.0214"}, {"sequence": "ACTCTGCT", "PBM E-score": "inactive: -0.114"}, {"sequence": "CCACACTC", "PBM E-score": "inactive: -0.162"}, {"sequence": "ATGCGAGC", "PBM E-score": "inactive: -0.17"}, {"sequence": "ATGTCTCA", "PBM E-score": "inactive: 0.19"}, {"sequence": "CCCGTATA", "PBM E-score": "inactive: -0.0295"}, {"sequence": "AAATTGAC", "PBM E-score": "inactive: 0.0814"}, {"sequence": "CCTTTTAG", "PBM E-score": "inactive: -0.0522"}, {"sequence": "ATATATAA", "PBM E-score": "inactive: 0.23"}, {"sequence": "ACGCTATA", "PBM E-score": "inactive: 0.0501"}, {"sequence": "AGTTACTC", "PBM E-score": "inactive: 0.0496"}, {"sequence": "ATATTTTG", "PBM E-score": "inactive: 0.139"}, {"sequence": "ACTGTGTA", "PBM E-score": "inactive: 0.258"}, {"sequence": "AGTGGGGA", "PBM E-score": "inactive: -0.103"}, {"sequence": "AAGCTCTC", "PBM E-score": "inactive: -0.218"}, {"sequence": "TCCTACGA", "PBM E-score": "inactive: 0.0204"}, {"sequence": "TTCCCGAA", "PBM E-score": "inactive: -0.00574"}, {"sequence": "CGACCAGC", "PBM E-score": "inactive: -0.0511"}, {"sequence": "GAGTCACA", "PBM E-score": "inactive: 0.0438"}, {"sequence": "ACACCGGT", "PBM E-score": "≥ 0.0793"}, {"sequence": "ACATGGAA", "PBM E-score": "inactive: 0.296"}, {"sequence": "CCACAACA", "PBM E-score": "inactive: 0.142"}, {"sequence": "CTAGGCAG", "PBM E-score": "inactive: -0.125"}, {"sequence": "AATTCCTA", "PBM E-score": "≥ 0.125"}, {"sequence": "ACATTATC", "PBM E-score": "inactive: 0.29"}, {"sequence": "CGTACCCC", "PBM E-score": "inactive: -0.0819"}, {"sequence": "ACAAAGAT", "PBM E-score": "inactive: 0.14"}, {"sequence": "AGGCTGTA", "PBM E-score": "≥ 0.155"}, {"sequence": "ATCCTCTC", "PBM E-score": "inactive: -0.147"}, {"sequence": "GGGAGGCA", "PBM E-score": "inactive: -0.258"}, {"sequence": "GTCGCAAA", "PBM E-score": "inactive: 0.0754"}, {"sequence": "GCACATCC", "PBM E-score": "inactive: 0.0148"}, {"sequence": "AGTCATAC", "PBM E-score": "inactive: 0.0989"}, {"sequence": "ACCCTACG", "PBM E-score": "inactive: -0.0463"}, {"sequence": "ACCGGGAT", "PBM E-score": "inactive: -0.107"}, {"sequence": "CGTTCCGA", "PBM E-score": "inactive: -0.0342"}, {"sequence": "TAACCAGA", "PBM E-score": "≥ 0.173"}, {"sequence": "ACTGCCAT", "PBM E-score": "≥ 0.0316"}, {"sequence": "CGCTCCTC", "PBM E-score": "inactive: -0.251"}, {"sequence": "CTCCAGTA", "PBM E-score": "inactive: -0.0222"}, {"sequence": "ACAATATA", "PBM E-score": "inactive: 0.245"}, {"sequence": "ATGTACAA", "PBM E-score": "active: 0.453"}, {"sequence": "ACGGTACC", "PBM E-score": "inactive: -0.0159"}, {"sequence": "AGTCTCTC", "PBM E-score": "inactive: -0.171"}, {"sequence": "GTCTCGAA", "PBM E-score": "inactive: 0.0226"}, {"sequence": "AAACAATA", "PBM E-score": "inactive: 0.181"}, {"sequence": "ACGCTGCC", "PBM E-score": "inactive: -0.12"}, {"sequence": "ATTGGCAG", "PBM E-score": "inactive: 0.00119"}, {"sequence": "TATCTTGA", "PBM E-score": "inactive: 0.0977"}, {"sequence": "CAGCAAAG", "PBM E-score": "inactive: -0.0915"}, {"sequence": "GCCGTTCC", "PBM E-score": "inactive: -0.0568"}, {"sequence": "TGCGCTAA", "PBM E-score": "inactive: 0.0295"}]}]}
